The text below walks through data of ChEMBL document CHEMBL3132811, “Development and evaluation of selective, reversible LSD1 inhibitors derived from fragments” (Medchemcomm, 2013).

The target of data set [1] is T1, Lysine-specific histone demethylase 1A (Homo sapiens, UniProt O60341). As to the kind of experiment: Inhibition of LSD1 (unknown origin) using histone H3 (1 to 21) K4(Me1)-biotin peptide as substrate after 30 mins by HTRF assay. (In general: Time-resolved FRET reads energy transfer from a long-lived donor to a nearby acceptor.)
Data set [2] concerns the target T2, Amine oxidase [flavin-containing] A (Homo sapiens, UniProt P21397).
T2 sequence (P21397 whole entry): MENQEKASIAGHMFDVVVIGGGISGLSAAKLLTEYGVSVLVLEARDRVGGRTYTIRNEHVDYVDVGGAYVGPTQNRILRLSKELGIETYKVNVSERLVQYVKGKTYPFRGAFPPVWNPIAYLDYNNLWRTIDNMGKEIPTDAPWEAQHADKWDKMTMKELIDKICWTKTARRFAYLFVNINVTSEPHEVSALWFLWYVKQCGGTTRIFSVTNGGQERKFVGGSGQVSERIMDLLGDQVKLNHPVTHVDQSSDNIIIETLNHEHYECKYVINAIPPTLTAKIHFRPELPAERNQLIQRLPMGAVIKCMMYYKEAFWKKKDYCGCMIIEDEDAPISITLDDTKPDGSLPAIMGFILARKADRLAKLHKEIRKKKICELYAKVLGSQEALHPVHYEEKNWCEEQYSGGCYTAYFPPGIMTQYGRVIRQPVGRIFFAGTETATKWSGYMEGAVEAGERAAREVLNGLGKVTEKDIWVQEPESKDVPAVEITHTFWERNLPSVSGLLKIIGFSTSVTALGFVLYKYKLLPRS
Briefly: Inhibition of MAO-A (unknown origin) assessed as oxidative deamination of kynuramine to 4-hydroxyquinoline after 30 mins by fluorescence assay.

Data set [3] has as its system THP-1. Briefly: Cytotoxicity against human THP1 cells after 24 hrs. Type of data set: ADME, cell-based. The settings on record: thp-1, 24 h.
In data set [4] the test system is THP-1. Briefly: Cytotoxicity against human THP1 cells at > 50 uM after 24 hrs. Type of data set: ADME, cell-based. To be noted: thp-1, 24 h.
Data set [5] concerns the target T1, Lysine-specific histone demethylase 1A. To be noted: at 500 µM.
Data set [6] shares this target. The settings on record: at 125 µM.
Data set [7] shares this target. As to the kind of experiment: Inhibition of LSD1 (unknown origin) using H3K4 peptide as substrate.
Data set [8] shares this target. Briefly: Inhibition of N-terminal 6X His-tagged human recombinant full-length LSD1 expressed in Escherichia coli BL21(DE3) using H3K4me2 (1 to 21) peptide as substrate at 10 uM after 3 hrs by chemiluminescence assay relative to control.

In general, IC50 refers to the concentration needed to halve the response being measured. For `CC(=O)c1csc(NS(=O)(=O)c2ccccc2)n1`, in data set [1], the IC50 was greater than 188 µM. As for `O=S(=O)(Nc1nc(-c2ccccc2Cl)cs1)c1cccc(Cl)c1`, the 50% inhibitory concentration (IC50) in data set [2] was greater than 500 µM.

Turning to `C/C(=N\NC(=O)c1cccc(S(=O)(=O)N2CCOCC2)c1)c1ccc(Cl)cc1O`, the Activity result with THP-1 [3] is given as “>= 2 uM”. `O=[N+]([O-])c1ccc(-c2csc(NS(=O)(=O)c3cccc(Cl)c3)n2)cc1`: the half-maximal inhibitory concentration (IC50) in data set [2] was 25.3 µM. Consider `O=S(=O)(Nc1nc(-c2ccccc2)cs1)c1cccc(Cl)c1`, for which the concentration for half-maximal inhibition (IC50) in data set [2] came to 67.3 µM. Still for that read-out and setting: as for `O=[N+]([O-])c1ccc(S(=O)(=O)Nc2nc(-c3ccc(Cl)cc3)cs2)cc1`, the figure is greater than 500 µM. Compound `COc1ncccc1CNC1CC1c1ccccc1` (stereo not given) yielded an Activity in the data set with THP-1 [3] greater than 20 µM. With `Cn1nccc1-c1cncc(S(=O)(=O)Nc2nc(-c3ccc(Cl)cc3)cs2)c1`, in data set [2], the IC50 worked out at 9.5 µM. Still for that read-out and setting: to `COc1ccc(-c2csc(NS(=O)(=O)c3cccc(Cl)c3)n2)cc1` belongs 6.5 µM. On the same count and under the same terms, as for `Cc1ccccc1S(=O)(=O)Nc1nc(-c2ccc(Cl)cc2)cs1`, the figure is 89.3 µM; as for `O=[N+]([O-])c1ccccc1S(=O)(=O)Nc1nc(-c2ccc(Cl)cc2)cs1`, 88.9 µM.

`O=S(=O)(Nc1nc(-c2ccc(Cl)cc2)cs1)c1cccc(-c2ccccc2)c1`: the Activity result in the data set on THP-1 [4] is given as “Toxic”. With `O=S(=O)(Nc1nc(-c2ccc3c(c2)OCCO3)cs1)c1cccc(Cl)c1`, the IC50 in data set [2] turned out to be 4.81 µM. `O=S(=O)(Nc1nc(-c2cccc(Cl)c2)cs1)c1cccc(Cl)c1`: the 50% inhibitory concentration (IC50) in data set [2] is 25.8 µM. In the data set with THP-1 [4], the Activity entry is listed as “Toxic”. For the compound `O=[N+]([O-])c1cccc(-c2csc(NS(=O)(=O)c3cccc(Cl)c3)n2)c1`, in data set [2], the IC50 worked out at 118 µM. Take `O=C(Nc1nc(-c2ccc(Cl)cc2)cs1)c1ccccc1`: the IC50 in data set [1] was greater than 188 µM. Consider `O=S(=O)(Nc1nc(-c2ccc(Cl)cc2)cs1)c1cccc(C(F)(F)F)c1`, for which the Activity entry in the data set on THP-1 [4] is recorded as “Toxic”. For the compound `O=[N+]([O-])c1ccccc1-c1csc(NS(=O)(=O)c2cccc(Cl)c2)n1`, the 50% inhibitory concentration (IC50) in data set [2] was greater than 500 µM.

Compound `Cc1ccc(-c2ncc(OC[C@@H]3CCNC3)cc2-c2ccc(C#N)cc2)cc1` came in with an Activity in the data set on THP-1 [3] greater than 20 µM. In the case of `CC(=O)c1csc(NC(=O)Nc2ccccc2)n1`, the half-maximal inhibitory concentration (IC50) in data set [1] was greater than 188 µM. Turning to `O=S(=O)(Nc1nc(-c2ccc(Cl)cc2)cs1)c1ccccc1C(F)(F)F`, the IC50 in data set [2] was 132 µM. The same measure, in the same setting: to `O=S(=O)(Nc1nc(-c2cccc(Br)c2)cs1)c1cccc(Cl)c1` belongs 44.2 µM.

`O=S(=O)(Nc1nc(-c2ccc(Br)cc2)cs1)c1cccc(Cl)c1`: in data set [2], the IC50 turned out to be 178 µM. As a reminder, the inhibition is the relative decrease from the control value, in per cent. Regarding `CC(=O)c1csc(Nc2ccccc2Cl)n1`, the 50% inhibitory concentration (IC50) in data set [1] is greater than 188 µM. The values for the inhibition in data set [5] and in data set [6] were 82% and 35%, respectively.

Consider `CS(=O)(=O)Nc1nc(-c2ccc(Cl)cc2)cs1`, for which the concentration for half-maximal inhibition (IC50) in data set [1] was greater than 188 µM. With `COc1cccc(-c2csc(NS(=O)(=O)c3cccc(Cl)c3)n2)c1`, in data set [2], the IC50 was determined as 14.5 µM.

As for `Cc1cccc(S(=O)(=O)Nc2nc(-c3ccc(Cl)cc3)cs2)c1`, in data set [2], the concentration for half-maximal inhibition (IC50) turned out to be 38.3 µM.

Turning to `CSCCc1nc(-c2cccc(NC(=N)N)c2)oc1C`, in data set [7], the IC50 was 9.5 µM. Also, in data set [8], the inhibition is greater than 50%. In data set [1], `CC(=O)c1csc(NC(=O)c2ccccc2)n1` returned an IC50 greater than 188 µM.

As to `O=[N+]([O-])c1cccc(S(=O)(=O)Nc2nc(-c3ccc(Cl)cc3)cs2)c1`, the 50% inhibitory concentration (IC50) in data set [2] turned out to be 207 µM. The same measure, in the same setting: to `COc1ccc(S(=O)(=O)Nc2nc(-c3ccc(Cl)cc3)cs2)cc1` belongs 28.4 µM.
